Results as given in paper PMC11995724, “Antibiotic target discovery by integrated phenotypic and activity-based profiling of electrophilic fragments” (Cell chemical biology, 2025).
About 75 (2%) of roughly 3,200 compounds showed an effect of 50% or more. The list shows a part of the results.

system: T1, S. aureus MSSA476; parameters: species or system S. aureus MSSA476 (TSB) or V. cholerae SAD30 (LB); 384-well bacterial growth screen at 25 uM, OD600 relative to DMSO control; details: relative growth, OD600, TSB; 25 µM; inhibitor
T1 construct: MSSA476

| SMILES | % of control remaining |
| --- | --- |
| C=CC(=O)N(c1cc(C)ccc1C#N)C(C)C [2-A22, N-(2-cyano-5-methylphenyl)-N-(propan-2-yl)prop-2-enamide] | 144.125% |
| Cc1ncsc1C=C(C#N)C(=O)Nc1ccc(C(=O)N(C)C)cc1 [9-J16, 4-[2-cyano-3-(4-methyl-1,3-thiazol-5-yl)prop-2-enamido]-N,N-dimethylbenzamide] | 104.27% |
| N#CC(=Cc1c(Cl)cccc1Cl)C(=O)Nc1nccs1 [8-P09, 2-cyano-3-(2,6-dichlorophenyl)-N-(1,3-thiazol-2-yl)prop-2-enamide] | 146.722% |
| CC(Cl)C(=O)NCc1nc(N(C)C)no1 (stereo not shown) [7-A04, 2-chloro-N-{[3-(dimethylamino)-1,2,4-oxadiazol-5-yl]methyl}propanamide] | 109.576% |
| Cc1cccc(-n2c(C)cc(C(=O)CCl)c2C)c1 [10-A22, 2-chloro-1-[2,5-dimethyl-1-(3-methylphenyl)-1H-pyrrol-3-yl]ethan-1-one] | 138.438% |
| O=C(CCl)N1N=C(c2ccccc2)CC1c1ccccc1 (stereo not shown) [4-I20, 2-chloro-1-(3,5-diphenyl-4,5-dihydro-1H-pyrazol-1-yl)ethan-1-one] | 107.48% |
| CC(=O)N1c2ccc(C(=O)CCl)cc2CC1C (stereo not shown) [10-I20, 1-(1-acetyl-2-methyl-2,3-dihydro-1H-indol-5-yl)-2-chloroethan-1-one] | 66.25% |
| O=C(CCl)NCC(F)(F)c1cc(-c2ccccc2)n[nH]1 [7-P20, 2-chloro-N-[2,2-difluoro-2-(3-phenyl-1H-pyrazol-5-yl)ethyl]acetamide] | 128.414% |
| O=C(CCl)NC(c1ccc(F)cc1)C1CCCC1 (stereo not shown) [6-K08, 2-chloro-N-[cyclopentyl(4-fluorophenyl)methyl]acetamide] | 107.561% |
| C=CC(=O)N1CCN(CC(=O)NC)CC1 [1-F03, N-methyl-2-[4-(prop-2-enoyl)piperazin-1-yl]acetamide] | 96.7033% |
| CC1(C)CN(C(=O)CCl)CCO1 [6-C05, 2-chloro-1-(2,2-dimethylmorpholin-4-yl)ethan-1-one] | 84.3415% |
| N#CC(C(=O)CCl)=C1NC(C23CC4CC(CC(C4)C2)C3)=CS1 [10-F14, 2-[4-(adamantan-1-yl)-2,3-dihydro-1,3-thiazol-2-ylidene]-4-chloro-3-oxobutanenitrile] | 42.1875% |
| Cc1noc(CC(NC(=O)CCl)c2ccccc2)n1 (stereo not shown) [5-E04, 2-chloro-N-[2-(3-methyl-1,2,4-oxadiazol-5-yl)-1-phenylethyl]acetamide] | 113.661% |
